Over roughly 33,000 sequences, “E-score (dimensionless, -0.5 to 0.5)” has its median near -0.058; the highest 2% begin near 0.35. The list shows a part of the results.
Test system: MvaT
Test: PBM 8-mer E-score (mean of HK and ME arrays) (E-score (dimensionless, -0.5 to 0.5)); higher = stronger relative binding preference; most listed sequences are background and not binding sites
In short: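 Reported values are rank-based E-scores, taken as the mean of two universal arrays and parsed with a custom script. Each 8-mer score falls between -0.5 and 0.5. The arrays, ME and HK, were double-stranded 60-mers with a constant 25-mer primer region and a variable 35-mer region covering all 8-mers. They were probed, by an earlier protocol, with full-length P. aeruginosa MvaT carrying an N-terminal glutathione S-transferase fusion.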

Sequence	PBM 8-mer E-score
GTATTCAC	0.184
CCGTGCTA	-0.141
ACTCAGCC	-0.165
AATTTCTG	0.0666
GAGCATAA	0.0834
AAATTTAA	0.408
ATACGTAG	0.107
GTTCTGCA	0.0116
CAAGCGCA	-0.135
CTTCTGAC	-0.0267
CCATAGGC	-0.209
ACGAGCTG	-0.237
TGCTCCAA	-0.104
ACATGAAC	0.123
ATCACAGG	-0.124
CGGTTATC	0.0552
GGTAGATA	0.0674
ATAAACAG	0.257
CAATCACG	-0.281
TGTAAGAA	0.162
TAACTAGA	0.221
AATAATGG	0.372
AGAGACCA	-0.0266
AACGACTA	-0.00306
TCCGGCAA	-0.241

Sequence	PBM 8-mer E-score
CGAGGTAA	-0.0716
CTTAGGTA	-0.0414
AACCCGCT	-0.0928
ACTGAATA	0.235
AAATACTT	0.246
GGCGTAAC	-0.0695
ATGATACA	0.16
ACATACGC	-0.163
AGTAGCAT	0.0761
AAACTTGA	0.179
ACGCACTC	-0.0389
AGTTGCAA	0.176
AAGACTCA	-0.0174
ACTTTTCT	0.167
ATGCTGCA	0.0391
GCCCCCCA	-0.333
GATTGGCC	-0.163
AAACAGTT	0.249
ACTGCCGA	-0.128
CACACAAC	0.028
GCTACAGC	-0.215
GATACAGC	-0.0898
CTGATTGC	0.106
GTCAGATA	0.0678
ACGCTCAC	-0.242

Sequence	PBM 8-mer E-score
AAATCGGG	-0.0104
ATATCTAA	0.336
CTCGGAGA	-0.0569
TCTTAAGA	0.253
GCCCAACC	-0.141
CAGACACG	-0.158
ATATTGTC	0.346
CTCCAATC	-0.107
AAGAGCCT	-0.147
ATGCTAAG	0.0822
AACGTGTG	-0.0783
AAGTGCCC	-0.067
CTATGGGA	-0.222
GACGATCC	-0.123
ACGCGGCG	-0.275
ACCTTTCA	0.0599
TGACGTCA	-0.126
AAACCATG	0.0813
GTCCTAGA	-0.238
GAACACGC	-0.00574
CTGCTGAC	-0.0566
CTAATCTA	0.205
AGAACAGC	-0.0238
ATCATAGC	0.0365
GAACTACC	0.000847

Sequence	PBM 8-mer E-score
GTATTTAA	0.368
ATTTTCCC	0.0468
CGACTAAG	-0.13
GGCACACC	-0.129
TCTGCAGA	0.0322
TCTACGAA	-0.149
CCATACTA	0.12
CTCGTACC	-0.155
ATTTGATA	0.2
AGCATACT	0.0488
AGATCTAG	-0.0426
ACAACCTG	-0.038
ATAGATAT	0.288
ATACACCA	0.193
AGTGGGAG	-0.192
AGTGTCGC	-0.0462
GCCTCGAC	-0.24
ACGTAAGG	-0.0828
AGCAAGAG	-0.0917
GCATATGC	0.167
ACGCCGGC	-0.137
ACTGAACA	0.131
GAGGATAA	0.181
TACACATA	0.242
AGGTAGCG	-0.144

Sequence	PBM 8-mer E-score
AGGGCTGA	-0.191
CTGCTTTC	-0.198
ATGGACAC	-0.056
AAGTAAAT	0.312
CGGTAGCA	-0.0486
ACGCGGCA	-0.108
AGGGCCGA	-0.21
AAGCATGC	-0.142
AGCTGTGC	-0.156
GAAAAGAA	0.21
CAGGATGC	-0.251
ACGATCAC	-0.0745
ATGCTGGC	-0.154
CGAAATTC	0.192
AAGTACCT	0.051
ACGCCGCG	-0.195
TACGCGGA	-0.0302
AATAGCCC	0.0938
ATTGGTTA	0.282
CGGAAATA	0.19
AACTGCTT	0.161
CCCGAACA	-0.0758
GGTTGCAA	0.00272
AGAATGTA	0.192
GCCCAGCC	-0.24

Sequence	PBM 8-mer E-score
AAAACGGT	-0.00471
ATTTTGAC	0.219
CTACCGAC	-0.233
CTGAAACC	-0.139
AAACAAAT	0.285
GCAAAACC	-0.0546
CAATTACG	0.257
AATCACAG	0.00714
ACTGATCC	-0.154
AACCACCC	-0.085
GACTATAA	0.316
CAGAACGG	-0.135
ACACGTAT	0.162
CCCTAGAA	-0.00384
CGTCCCGA	-0.155
GTTTGACA	0.112
CCCGCCGC	-0.27
TGAAAGAA	0.212
CTGCAGTA	0.129
TCTAAAAA	0.156
ACCTTTTC	-0.112
CATCACCA	-0.0625
AAGGGGAG	-0.21
CGGGTAGA	-0.0777
ATTTGCGA	0.0986

Sequence	PBM 8-mer E-score
CCTCCACG	-0.204
CCCCGTGC	-0.256
CCTTTATA	0.193
ACATAACG	0.183
ACCACTCC	-0.067
AGAAGATG	0.024
ACAGGTAT	0.142
AGCCTTTA	-0.0555
GTGCGAAC	0.00328
ATCGCGGA	0.00065
CTACAGTC	-0.0562
TACGACAA	0.131
CGCGTACC	-0.13
AAAAGAAT	0.323
GACGCGAA	0.00258
AGATCCGG	-0.188
CCATGTTC	-0.0831
ACGATAGA	-0.0798
ACGCACGT	-0.269
ATTCGGTC	-0.0193
GAGACAGA	-0.0481
CCACTACG	-0.155
